# The whole screen tested about 370,000 compounds, of which about 150 (0.041%) were called active. Inconclusive results, whose numbers are uncertain, are shown with a selection of clear calls. Calls follow the shape of the dose curve; as a rule, active = well fitted inhibition curve with a large enough effect; inconclusive = small, poorly fitted or top-dose-only effect; inactive = flat fitted curve, though single readings scatter. No potency is given beside an inconclusive call; the fits are too rough.
# Target: Beta-lactamase (Escherichia coli (strain K12)) (UniProt P00811)
# Assay: qHTS Inhibitors of AmpC Beta-Lactamase (assay with detergent); also: nearly all actives have a fitted effect of over 25% in size
# Details: AmpC hydrolysis of nitrocefin, absorbance 480 nm, 0.01% Triton; series mostly up to 114 µM
# How it was run: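 AmpC (5.3 nM in the dispensed reagent) in 20 mM phosphate pH 7.0 with 0.01% (detergent screen) or 0.0001% Triton X-100 was preincubated with compounds for 15 min at room temperature. Nitrocefin was then added from an 800 uM solution, and hydrolysis was followed at 480 nm.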
# Potency is read from the fitted curve at half-maximal effect; tags tell the direction and shape of the fitted curve.
# Sequence of UniProt P00811 (P00811 whole entry, looked up): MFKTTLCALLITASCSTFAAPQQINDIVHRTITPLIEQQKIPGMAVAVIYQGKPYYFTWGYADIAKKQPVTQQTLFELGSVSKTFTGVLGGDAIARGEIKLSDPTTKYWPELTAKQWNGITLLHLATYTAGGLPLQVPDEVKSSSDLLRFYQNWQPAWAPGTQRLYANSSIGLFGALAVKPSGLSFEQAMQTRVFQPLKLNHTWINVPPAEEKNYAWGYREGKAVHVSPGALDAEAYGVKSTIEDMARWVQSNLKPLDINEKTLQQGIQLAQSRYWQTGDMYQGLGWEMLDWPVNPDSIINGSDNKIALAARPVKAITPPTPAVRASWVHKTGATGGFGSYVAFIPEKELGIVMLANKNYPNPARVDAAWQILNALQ
row,SMILES,Potency
1,C#CCOCCOCCOCCNc1nc(N2CCN(C(=O)CCCCCCCCCCNC(=O)[C@H](CCCCN)n3cc(C[C@@H](C)CC)nn3)CC2)nc(N2CCN(C(=O)CCCCCCCCCCNC(=O)[C@@H]([C@H](C)O)n3cc(C)nn3)CC2)n1,inactive
2,CCOc1ccc(OCC)c(NC(=O)C2CCCN(C(=O)c3ccc(Cl)cc3)C2)c1 (stereo unspecified),"inconclusive [inhibitor, partial curve, poor fit]"
3,CC(=O)NC(Cc1ccc(N(CCCl)CCCl)cc1)C(=O)O (stereo unspecified),"inconclusive [inhibitor, partial curve]"
4,O=C(COC(=O)c1ccc(O)cc1O)Nc1ccc2ccccc2c1,"inconclusive [inhibitor, full curve, poor fit]"
5,COc1cccc(NC(=O)c2sc3nc(C)c(C(=O)Nc4ccc(C)cc4C)c(-c4ccccc4Cl)c3c2N)c1,"inconclusive [inhibitor, partial curve, poor fit]"
6,Cc1cc(C)cc(N(CC(=O)N2CC=C(c3ccccc3)CC2)S(=O)(=O)c2c(C)noc2C)c1,"inconclusive [inhibitor, partial curve, poor fit]"
7,CN(C(=S)NC(=O)c1ccc(Cl)cc1)C1CCCCC1,"inconclusive [inhibitor, full curve]"
8,O=P(Nc1ccccc1)(Nc1ccccc1)Oc1ccc(Cl)cc1,"inconclusive [inhibitor, full curve, poor fit]"
9,COc1ccc(C(c2sc3nc(C)nn3c2O)N2CCN(CCO)CC2)cc1OC (stereo unspecified),"inconclusive [inhibitor, full curve, poor fit]"
10,COc1ccc(CN2CCn3ncc(C(=O)Nc4cc(C)cc(C)c4)c3C2=O)cc1,inactive
11,Cc1cccc(COCC(Cc2ccccc2)N2CCN(C(=O)c3ccc(C(F)(F)F)cc3)CCC2=O)c1 (stereo unspecified),"inconclusive [inhibitor, full curve]"
12,O=S(=O)(N=S(N1CCCCC1)N1CCCCC1)c1ccccc1,"inconclusive [inhibitor, full curve, poor fit]"
13,Cc1ccc(O)c(N=Cc2ccc(C)s2)c1,inactive
14,Cc1ccc(CNC(=O)c2cc3c(=O)n(C)c4ccccc4c3n2C)o1,"inconclusive [inhibitor, full curve, poor fit]"
15,CC(C)(C)n1ncc2c(=O)n(CC(=O)NCc3ccco3)cnc21,"inconclusive [inhibitor, partial curve, poor fit]"
16,O=S(=O)(/N=C(\c1ccccc1)N1CCOCC1)c1cccs1,"inconclusive [inhibitor, full curve]"
17,CCN1CCN(C(=O)C2CCC(=O)N(CCCN3CCCC3=O)C2)CC1 (stereo unspecified),"inconclusive [inhibitor, partial curve]"
18,COc1ccc(CN2CCC(=O)N([C@H](CO)CC(C)C)CC2)cc1,"inconclusive [inhibitor, full curve, poor fit]"
19,CC(C)(C)NC(=O)C(c1ccc(O)cc1)N(C(=O)Cn1nnc(-c2ccc(F)cc2)n1)c1ccccc1F (stereo unspecified),inactive
20,O=C(COc1ncnc2sccc12)N1CCN(C(=O)c2ccco2)CC1,"inconclusive [inhibitor, full curve]"
21,Cc1cccc(Cn2c(=O)n(-c3ccc(CC(=O)NCc4ccco4)cc3)c(=O)c3sccc32)c1,"inconclusive [inhibitor, full curve]"
22,Cc1c(C(=O)OCc2nc3ccsc3c(=O)[nH]2)oc2ccccc12,inactive

row,SMILES,Potency
1,O=C(COc1ccccc1)Nc1ccc2c(c1)Cc1cc(NC(=O)COc3ccccc3)ccc1-2,inactive
2,CCN(CC(=O)NCc1cccs1)C(=O)c1ccc(NS(=O)(=O)c2ccc(C(C)=O)cc2)cc1,"inconclusive [inhibitor, full curve]"
3,CC(=O)c1c(N(C)C)ccnc1C(F)(F)F,"inconclusive [inhibitor, full curve, poor fit]"
4,CC(C)(C)n1cnc2cc(NC(=O)c3ccco3)ccc21,inactive
5,Cc1cc(OC(C)C(=O)Nc2ccccc2C(=O)N2CCCC2)ccc1Cl (stereo unspecified),"inconclusive [inhibitor, full curve, poor fit]"
6,Cc1cc(C)nc(N2CCCC(C(=O)NC(C)C)C2)n1 (stereo unspecified),inactive
7,Cc1ccc(O)c(C(=O)c2cnc3c(c2)CN(CCC(C)C)C(=O)N3)c1,inactive
8,COc1ccc(OC)c(/C=N/NC(=O)c2csc3ccccc23)c1,"inconclusive [inhibitor, partial curve]"
9,Cc1cc(=O)oc2cc(OCC(=O)N3CCOCC3)ccc12,inactive
10,O=C(N/N=C/c1c[nH]c2ccccc12)c1cccc([N+](=O)[O-])c1,"inconclusive [inhibitor, full curve, poor fit]"
11,CCn1c(=O)n(-c2ccc(C)c(F)c2)c(=O)c2sc3ccccc3c21,inactive
12,CC1CCN(C(=O)CSc2nc(=O)n3cc(Cl)ccc3n2)CC1,"inconclusive [inhibitor, partial curve, poor fit]"
13,COc1ccccc1NC(=O)C(=O)N(c1cccnc1)C(C(=O)NC(C)(C)C)c1ccccc1F (stereo unspecified),"inconclusive [inhibitor, single point]"
14,CN(C)S(=O)(=O)N1CCN(C(=O)N2CCCCCC2)CC1,"inconclusive [inhibitor, full curve, poor fit]"
15,Cc1ccc2occ(CN3CC4CC(C3)c3cccc(=O)n3C4)c(=O)c2c1 (stereo unspecified),"inconclusive [inhibitor, full curve, poor fit]"
16,CC(C)(C)c1ccc(OCCC(=O)OCC(=O)NC2CCCCC2)cc1,"inconclusive [inhibitor, partial curve]"
17,CCCN(CCC)CCCNC(=O)Cn1cnc2sc(C)c(S(=O)(=O)N3CCCCC3)c2c1=O,"inconclusive [inhibitor, single point]"
18,O=C(O)CSCCCC(=O)Nc1ccc(Br)cc1,"inconclusive [inhibitor, single point]"
19,CC(OC(=O)c1ccc(Cl)nc1)C(=O)NCc1ccc2c(c1)OCO2 (stereo unspecified),"inconclusive [inhibitor, full curve, poor fit]"
20,O=C(/C=C/c1ccc(Cl)cc1Cl)Nc1cccc(S(=O)(=O)NC2=NCCC2)c1,inactive
21,COc1cccc2c1OCC/C2=N\NC(=O)COc1ccc(C)cc1,inactive
22,O=[N+]([O-])c1ccc(P(=O)(Cc2ccccc2)c2ccccc2O)cc1 (stereo unspecified),inactive

row,SMILES,Potency
1,Cc1noc(C)c1C(=O)Nc1cc(S(=O)(=O)N2CCCCC2)ccc1N(C)C,"inconclusive [inhibitor, partial curve]"
2,CCOc1ccccc1C(=O)Nc1nnc(Cc2ccc(OC)c(OC)c2)s1,"inconclusive [inhibitor, full curve, poor fit]"
3,O=C(Nc1cccc2nsnc12)c1ccc2c(c1)OCO2,"inconclusive [inhibitor, partial curve]"
4,OCCC1CN(Cc2ccc3ncccc3c2)CCN1Cc1ccccc1 (stereo unspecified),inactive
5,Cc1ccc(S(=O)(=O)N(C)C)cc1NC(=O)COC(=O)c1c(-c2ccccc2)noc1C,"inconclusive [inhibitor, full curve, poor fit]"
6,Cc1ccc(NC(=O)c2ccc3c(c2)OCCO3)cc1C,inactive
7,C=CCC(NCc1ccco1)c1ccc(OC)c(OC)c1 (stereo unspecified),"inconclusive [inhibitor, partial curve, poor fit]"
8,CC(C)(C)OC(=O)NCCCC[C@H](NC(=O)c1nc[nH]c1C(=O)N1CCN(c2ccccc2)CC1)C(=O)OC(C)(C)C,inactive
9,CCc1ccc(NC(=O)c2cccnc2)cc1,inactive
10,CCCCCOc1ccc(N2C(=O)CC(N(O)c3ccccc3)C2=O)cc1 (stereo unspecified),"inconclusive [inhibitor, full curve, poor fit]"
11,COc1ccc(-c2nn3c(-c4ccccn4)nnc3s2)cc1OC,"inconclusive [inhibitor, full curve, poor fit]"
12,N=c1c2c(-c3ccccc3)c(-c3ccccc3)n(Cc3ccco3)c2ncn1CCCO,inactive
13,Cc1cccc(C(=O)NCC2CCCO2)c1 (stereo unspecified),"inconclusive [inhibitor, full curve, poor fit]"
14,CN(C)S(=O)(=O)c1ccc(N2CCCC2)c(C(=O)NCC(=O)Nc2ccc(F)c(F)c2)c1,"inconclusive [inhibitor, full curve, poor fit]"
15,Cc1c(C(=O)O)c2cc(O)ccc2n1-c1ccccc1,"inconclusive [inhibitor, partial curve, poor fit]"
16,O=C(O)CCc1ccc(-c2cccs2)n1NC(=O)c1ccco1,inactive
17,COc1ccc(-n2c(SCC(=O)OC(C)C)nnc2-c2ccccn2)cc1,"inconclusive [inhibitor, full curve, poor fit]"
18,O=C(Cc1ccccc1)Nc1ccc(N2CCCC2)cc1,inactive
19,CCc1sc(N)nc1-c1ccccc1,"inconclusive [inhibitor, partial curve, poor fit]"
20,CCCCn1c(N)c(N(CCOC)C(=O)C2CCN(S(=O)(=O)c3ccc(F)cc3)CC2)c(=O)[nH]c1=O,"inconclusive [inhibitor, full curve, poor fit]"
21,Cc1nc2ccc(NC(=O)C3CCCCC3)cc2s1,"inconclusive [inhibitor, full curve, poor fit]"
22,CC1CN(Cc2nc3c(c(=O)n(C)c(=O)n3C)n2CCN2CCOCC2)CC(C)O1 (stereo unspecified),"inconclusive [inhibitor, full curve, poor fit]"

# From PubChem BioAssay AID485294 (National Center for Advancing Translational Sciences (NCATS), 2010)
